According to PubChem BioAssay AID686971 (National Center for Advancing Translational Sciences (NCATS), 2013):
In all, about 360,000 compounds went through this assay and about 7,500 (2.1%) were called active. The inconclusive results got no clear call from the source; some entries with a clear call stand among them for comparison. Calls follow the shape of the dose curve; as a rule, active = well fitted cell-killing curve with a large enough effect; inconclusive = small, poorly fitted or top-dose-only effect, or effect the other way, or another doubt; inactive = no such curve, though single readings can be large or run the other way. No potency is given beside an inconclusive call; the fits are too rough.

experiment: qHTS for induction of synthetic lethality in tumor cells producing 2HG: qHTS for the HT-1080-IDH1KD cell line; conditions: HT-1080 IDH1 knockdown viability, ATP luminescence, 48 h; activity, negative = toxicity: at 46.1 µM (top of the series) unless noted;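 as to activity, negative = toxicity: 0% = DMSO wells and -100% = cell-free medium wells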
In short: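 IDH1KD HT-1080 cells, 750/well, RPMI + 5% FBS; compound pinned after 2 h settling; 48 h, 37 °C; CellTiter-Glo luminescence; % activity normalised to DMSO and no-cell wells; curves fitted, classed by r2 and efficacy.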
Potency is read from the fitted curve at half-maximal effect; tags tell the direction and shape of the fitted curve.

| Structure (SMILES) | activity, negative = toxicity | Potency |
| --- | --- | --- |
| Cc1ccc(S(=O)(=O)N2CCCC2C(=O)NCc2ccc3c(c2)OCO3)cc1 (stereo unspecified) | inactive: -0.86% | – |
| Cc1ccc(NC(=O)C2(C)Cc3ccccc3C(=O)O2)cc1 (stereo unspecified) | inactive: 0.123% | – |
| Cc1ccc2c(c1)c1c(n2CC(O)Cn2c(C)nc3ccccc32)CCCC1 (stereo unspecified) | – | inconclusive [cytotoxic, single point] |
| CCOc1ccc(Cl)cc1/C=N/NC(=O)c1ccccc1 | inactive: 13.1% | – |
| COc1cccc(-c2cc(C(=O)Nc3ccc(OC)c(OC)c3)no2)c1 | – | inconclusive [rising, single point] |
| O=C(/C=C/c1ccco1)NC(=S)Nc1cccc(-c2nc3ccccc3o2)c1 | – | active: 5.8 µM |
| O=C(NCc1ccc(F)cc1)c1cccc(S(=O)(=O)N2CCCC2)c1 | inactive: 2.38% | – |
| O=C(NC(c1ccc(Cl)cc1)c1cnccn1)C1CCN(CCOc2ccc(F)cc2)CC1 (stereo unspecified) | – | inconclusive [cytotoxic, single point] |
| Cc1ccccc1C(=O)N(C)[C@H]1C[C@H]2c3[nH]c4ccccc4c3CCN2C[C@H]1[C@H](C)O | inactive: 0.112% | – |
| CSc1ccc(NC(=O)C2(C)CCN2C(=O)C2(c3ccccc3)CC2)cc1 (stereo unspecified) | inactive: -22.1% | – |
| CC(=O)Nc1cc(-c2cccc(NS(C)(=O)=O)c2)cn2c(-c3cccc(C(C)=O)c3)cnc12 | – | inconclusive [cytotoxic, single point] |
| C=CC[n+]1c(/C=C/c2ccc(OC(C)=O)c(OC)c2)ccc2ccccc21 | – | inconclusive [cytotoxic, single point] |
| COc1ccc(C(=O)Nc2ccc(NC(=O)c3cccc(OC)c3)cn2)cc1 | – | inconclusive [cytotoxic, partial curve] |
| CC(O)(c1cccnc1)c1nc(-c2ccc(F)c(Cl)c2)cs1 (stereo unspecified) | – | inconclusive [cytotoxic, single point] |
| COc1ccc(NC(=O)C2(C)Cc3c(-c4cccc(NC(C)=O)c4)ccnc3O2)cn1 (stereo unspecified) | – | inconclusive [cytotoxic, full curve] |
| COCCSc1ccccc1C(=O)NCc1cccnc1 | inactive: 1.32% | – |
| CC(=O)Nc1ccc(-c2ccnc3c2CC(C(=O)Nc2ccc4c(c2)OCO4)O3)cc1 (stereo unspecified) | – | active: 14.6 µM |
| C=CCn1c(=O)/c(=C/c2ccc(Cl)cc2)s/c1=C(\C#N)c1nnc2n1CCCCC2 | inactive: -1.22% | – |
| COc1ccc(C2CC(C)(c3ccc(OC)cc3)Nc3ccccc3N2)cc1 (stereo unspecified) | – | inconclusive [cytotoxic, single point] |
| CN=c1scc(-c2ccccc2F)n1/N=C/c1ccc(O)c(O)c1O | inconclusive: -21.1% [cytotoxic] | – |
| O=C(c1ccco1)N1CCN(c2c(-c3ccccc3)c3cc(Cl)ccc3[nH]c2=O)CC1 | – | inconclusive [cytotoxic, single point] |
